The supplement of paper PMC10369915
The other results are listed elsewhere or left out. Cut-off read from the data, not from the text of the source: active = 3.2 or more and inactive = the rest. Only a few entries rise above the background.

B1: BMPR1A_Y467_M470T (peptide)
chain: PSDPSYEDTRE
B2: BMPR2_Y247_R248G (peptide)
chain: NEKNIYGVPLM
B3: BMPR2_Y979 (peptide)
chain: RVKTPYSLKRW
B4: BOD1_Y82 (peptide)
chain: DTKPAYQNLRQ
B5: BPIFB2_Y36 (peptide)
chain: KAALSYVSEIG
B6: BRCA2_Y2621_W2626C (peptide)
chain: SRIWVYNHYRC
B7: BRCA2_Y2621_YF (peptide)
chain: SRIWVYNHFRW
B8: BRCA2_Y2624 (peptide)
chain: WVYNHYRWIIW
B9: BRCA2_Y2624_I2627F (peptide)
chain: WVYNHYRWFIW
B10: BRCA2_Y2624_W2626C (peptide)
chain: WVYNHYRCIIW
B11: BRCA2_Y2624_YF (peptide)
chain: WVFNHYRWIIW
B12: BRCA2_Y3009_T3013I_YF (peptide)
chain: KRFRIYHLAIS
B13: BRCA2_Y3009_YF (peptide)
chain: KRFRIYHLATS
B14: BRCA2_Y57_N60S (peptide)
chain: HKNNNYEPSLF
B15: BRD2_Y715_P714L (peptide)
chain: KPRKLYTIKKP
B16: BRDT_Y291_H288Y_YF (peptide)
chain: KKFFSYAWPFF
B17: BRDT_Y331_K336T_YF (peptide)
chain: MDNQEYKDAFT
B18: BRDT_Y335_K336T_YF (peptide)
chain: EFKDAYTFAAD
B19: BRDT_Y335_YF (peptide)
chain: EFKDAYKFAAD

biological target: SHP2 C-SH2 domain E139D; assay: enrichment score (SH2-bound / input frequency) (ratio); bacterial display of known human phosphotyrosine sites (pTyr-Var adds point mutants) read by sequencing; higher = stronger binding; tyrosines were phosphorylated by kinases first; conditions: peptide library: pTyr-Var
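Note: displayed peptides selected on beads carrying the immobilized SH2 domain, with library peptides lacking any tyrosine serving as negative controls.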

Enrichment score, inactive:
B1 0.695, B2 0.894, B4 1.29, B5 0.784, B6 1.64, B7 3.11, B8 2.91, B9 1.92, B10 2.14, B11 2.71, B13 1.06, B14 0.902, B15 0.852, B16 2.38, B17 0.698, B18 0.489, B19 0.514

Enrichment score, active:
B3 3.28, B12 3.98

biological target: SHP2 C-SH2 domain wild-type; assay: as above; conditions: peptide library: pTyr-Var

Enrichment score, inactive:
B1 0.308, B2 0.746, B3 2.56, B4 1.11, B5 0.812, B6 1.73, B7 3.02, B8 2.52, B9 1.86, B10 2.36, B11 3.11, B13 1.03, B14 0.698, B15 0.573, B16 1.68, B17 0.829, B18 0.473, B19 0.609

Enrichment score, active:
B12 3.38

biological target: SHP2 N-SH2 domain L43F; assay: as above; conditions: peptide library: pTyr-Var

Enrichment score, active:
B12 3.51

Enrichment score, inactive:
B1 0.753, B2 0.878, B3 2.76, B4 1.12, B5 0.722, B6 1.69, B7 2.87, B8 2.23, B9 1.81, B10 2.09, B11 3.14, B13 1.56, B14 1.01, B15 0.663, B16 3.09, B17 0.798, B18 0.509, B19 0.59

biological target: SHP2 N-SH2 domain T42A; assay: as above; conditions: peptide library: pTyr-Var

Enrichment score, active:
B7 5.23, B12 3.3, B16 3.29

Enrichment score, inactive:
B1 0.62, B2 0.717, B3 3.06, B4 1.13, B5 0.718, B6 1.52, B8 2.59, B9 1.83, B10 1.8, B11 2.61, B13 1.24, B14 0.535, B15 0.569, B17 0.697, B18 0.475, B19 0.494

biological target: SHP2 N-SH2 domain T52S; assay: as above; conditions: peptide library: pTyr-Var

Enrichment score, inactive:
B1 0.658, B2 1.02, B3 2.88, B4 1.2, B5 0.714, B6 1.67, B7 2.9, B8 2.65, B9 1.9, B10 2.05, B11 2.71, B13 2.36, B14 0.63, B15 0.59, B17 0.627, B18 0.514, B19 0.714

Enrichment score, active:
B12 4.39, B16 4.12

biological target: SHP2 N-SH2 domain wild-type; assay: as above; conditions: peptide library: pTyr-Var

Enrichment score, inactive:
B1 0.957, B2 0.92, B3 2.7, B4 1.16, B5 0.775, B6 1.83, B7 2.77, B8 2.75, B9 2.05, B10 2.35, B11 3.07, B12 3.01, B13 1.04, B14 0.631, B15 0.61, B16 1.75, B17 0.583, B18 0.48, B19 0.555
